In patent US20150183867A1 (AbbVie / Abbott, published 2015):

Key:
Aβ1-42 = molecular target: T1, Aβ1-42 (UniProt P05067 partial chain); experiment: Aβ 1-42 ELISA, peptide on plate; N-terminal VD
T1 construct: domain: Aβ1-42; Aβ 1-42 is a part of it; also called A beta
Protocol: ELISA assays were performed to screen for antibodies that bind a desired target antigen as follows. Maxisorb NUNC Immuno plates were coated with 100 μL/well of 1 μg/ml of Aβ1-42 diluted in coating buffer overnight at 6° C. Plates were washed three times with PBS containing 0.02% Tween 20. Blocking solution was prepared by dissolving the blocking reagent for ELISA (Roche) in 100 mL water and then diluted further 1:10 prior to use. Plates were blocked by the addition of 265 μL/well blocking solution for 2 hours at room temperature. Plates were washed three times after blocking with PBS containing 0.02% Tween 20.
Antibody or DVD-Igs were diluted to 100 ng/μL in PBST+0.5% BSA and serially diluted 1:3. One hundred microliters of antibody or DVD-Ig preparations was added to the plate and incubated for 2 hour at room temperature. Wells were washed three times with PBS containing 0.02% Tween 20.
One hundred microliters of TMB solution was added to each well and incubated for 10 minutes. TMB solution was prepared by mixing 20 mL 100 mM natrium-acetate pH4.9 with 200 μL TMB solution (Roche #92817060) and 29.5 μL 3% H₂O₂. The reaction was stopped by the addition of 50 μL 1N sulphuric acid. Plates were read spectrophotometrically at a wavelength of 450 nm.

IL-18 = molecular target: T2, IL-18 (UniProt Q14116 37-193, limits assumed); experiment: direct bind ELISA, antigen on plate; C-terminal VD
T2 construct: Bought reagent
Protocol: Enzyme Linked Immunosorbent Assays to screen for antibodies that bind a desired target antigen were performed as follows. High bind ELISA plates (Corning Costar #3369, Acton, Mass.) were coated with 100 μL/well of 10 μg/ml of desired target antigen (R&D Systems, Minneapolis, Minn.) or desired target antigen extra-cellular domain/FC fusion protein (R&D Systems, Minneapolis, Minn.) or monoclonal mouse anti-polyHistidine antibody (R&D Systems # MAB050, Minneapolis, Minn.) in phosphate buffered saline (10×PBS, Abbott Bioresearch Center, Media Prep# MPS-073, Worcester, Mass.) overnight at 4° C. Plates were washed four times with PBS containing 0.02% Tween 20. Plates were blocked by the addition of 300 μL/well blocking solution (non-fat dry milk powder, various retail suppliers, diluted to 2% in PBS) for 1/2 hour at room temperature. Plates were washed four times after blocking with PBS containing 0.02% Tween 20.
One hundred microliters of antibody or DVD-Ig preparations diluted in blocking solution as described above was added to the desired target antigen plate or desired target antigen/FC fusion plate or the anti-polyHistidine antibody/His tagged desired target antigen plate prepared as described above and incubated for 1 hour at room temperature. Wells were washed four times with PBS containing 0.02% Tween 20. […]

EC50 (Aβ1-42): 0.014 nM
EC50 (IL-18): 50.6 nM
B1: DVD231 (bispecific antibody, human IgG1, kappa)
heavy: EVQLLESGGGLVQPGGSLRLSCAASGFTFSNYGMSWVRQAPGKGLEWVASIRSGGGRTYYSDNVKGRFTISRDNSKNTLYLQMNSLRAEDTAVYYCVRYDHYSGSSDYWGQGTLVTVSSASTKGPEVQLVQSGTEVKKPGESLKISCKGSGYTVTSYWIGWVRQMPGKGLEWMGFIYPGDSETRYSPTFQGQVTISADKSFNTAFLQWSSLKASDTAMYYCARVGSGWYPYTFDIWGQGTMVTVSS[… human IgG1 constant region …]
light: DVVMTQSPLSLPVTPGEPASISCKSSQSLLDSDGKTYLNWLLQKPGQSPQRLIYLVSKLDSGVPDRFSGSGSGTDFTLKISRVEAEDVGVYYCWQGTHFPRTFGQGTKVEIKRTVAAPEIVMTQSPATLSVSPGERATLSCRASESISSNLAWYQQKPGQAPRLFIYTASTRATDIPARFSGSGSGTEFTLTISSLQSEDFAVYYCQQYNNWPSITFGQGTRLEIKRTVAAPSVFIFPPSDEQLKSGTASVVCLLNNFYPREAKVQWKVDNALQSGNSQESVTEQDSKDSTYSLSSTLTLSKADYEKHKVYACEVTHQGLSSPVTKSFNRGEC
notes: DVD-Ig; also called VD231H/VD231L
